Source: patent US20240182945A1, “PRODUCTS FOR REGULATION OF EUKARYOTIC AND MICROBIAL CELLS GROWTH” (priority 2021, published 2024)

System: bacteria of the swab from the tongue of the patient with Alzheimer's disease
Assay: Number of bacterial species isolated from tongue swab on media with excipients
Details: agent added

C[C@H]1COc2c(N3CCN(C)CC3)c(F)cc3c(=O)c(C(=O)O)cn1c23 [Levofloxacin]
1: Unique bacterial species identified with proposed method (number) (COL + PEP medium, ER −) | Unique bacterial species identified with proposed method (number) (LB agar, ER +)
0: Unique bacterial species identified with proposed method (number) (COL (Columbia agar), ER +) | Unique bacterial species identified with proposed method (number) (COL (Columbia agar), ER −) | Number of different bacterial species isolated (COL (Columbia agar), erythrocytes added (ER +)) | Number of different bacterial species isolated (COL (Columbia agar), erythrocytes not added (ER −)) | Unique bacterial species identified with proposed method (number) (LB agar, ER −) | Number of different bacterial species isolated (LB agar, erythrocytes not added (ER −))
2: Unique bacterial species identified with proposed method (number) (COL + PEP medium, ER +) | Number of different bacterial species isolated (COL + PEP medium, erythrocytes not added (ER −)) | Number of different bacterial species isolated (LB agar, erythrocytes added (ER +))
4: Number of different bacterial species isolated (COL + PEP medium, erythrocytes added (ER +))
